The assay concerns Vero. The assay is described as follows: cells. In kind it is functional. The following applies: Chlorocebus sabaeus.

SMILES strings stand for the structures. Active and inactive are the calls of the source. No rule for the calls is given here. A value given as a limit tells only on which side of the number the result lay.

As usually defined, the CC50 is the concentration giving 50% cytotoxicity. In the case of `CNC1CCc2cc(OC)c(OC)c(OC)c2-c2ccc(SC)c(=O)cc21` (stereo unspecified), the CC50 was active: < 50 nM.
